Screen size: about 52,000 compounds; about 4,300 (8.3%) were called active. Rule as the data show it: active = survival mostly below about 52% (no sharp cut-off); inactive = mostly above about 56%. This is one part of the list.
Tested on: DeltatarO mutant
Assay: growth inhibition of S. aureus wild type versus tarO mutant, primary screen, teichoic acid synthesis inhibitors, RN4220, OD600 (AID 463173)
Settings: OD600, 18 h, hits give low values, screened at 18.75 µg/mL (by protocol)

Row | SMILES | survival
1 | COc1ccc(CNC(=O)c2oc3c(c2C)-c2nn(Cc4ccccc4Cl)cc2CC3)cc1 | inactive: 89%
2 | N#Cc1cc2c(=O)n3ccccc3nc2n(-c2nnc(SCc3ccc(F)cc3)s2)c1=O | inactive: 78%
3 | Cc1ccc(C)c(NC(=O)C(=O)NCC(c2cccnc2)N2CCN(c3ccc(F)cc3)CC2)c1 (configuration not stated) | active: 15%
4 | CCOC(=O)c1ccc2c(c1)N(CC(=O)Nc1cc(F)ccc1F)C(=O)c1ccccc1S2 | inactive: 71%
5 | O=C(NCCCN1CCN(c2ccc(F)cc2)CC1)c1cc2c(s1)-c1ccccc1OC2 | active: 55%
6 | CSc1ccccc1NC(=O)C1=CC(c2ccc3c(c2)OCO3)=NS(=O)(=O)N1C | inactive: 73%
7 | Cc1cccc(-c2nc3cc(NC(=O)Cc4ccc(Cl)cc4)ccc3o2)c1 | inactive: 66%
8 | N=c1n(CC(=O)O)c2ccccc2n1Cc1ccccc1 | inactive: 84%
9 | CCN(CC)CCOC(=O)c1ccc(NC(=O)c2nn(-c3ccc(C)cc3)c(=O)c3c2c2ccccc2n3C)cc1 | inactive: 100%
10 | CCN(C(=O)Cn1nc2c3cc(F)ccc3n(Cc3cccc(C)c3)cc-2c1=O)c1cccc(C)c1 | inactive: 109%
11 | CCOC(=O)CCN(Cc1ccccc1)S(=O)(=O)c1csc(C(N)=O)c1 | inactive: 83%
12 | CC1CN(C(=O)CCC(=O)NCc2cccs2)c2ccccc2O1 (configuration not stated) | inactive: 62%
13 | COc1ccc(NC(=O)c2c(NCc3ccc(C)o3)sc3c2CCC(C)C3)cc1 (configuration not stated) | inactive: 116%
14 | CCOC(=O)c1ccc(NC(=O)c2nc(S(=O)(=O)Cc3ccccc3)ncc2Cl)cc1 | active: -2%
15 | COc1cc(NC(=O)C2=C(C)Nc3nnnn3C2c2ccc(SC)cc2)c(OC)cc1Cl (configuration not stated) | inactive: 63%
16 | Cc1ccc(S(=O)(=O)c2cn(C)c3cc(N4CCN(c5ccccc5)CC4)c(F)cc3c2=O)cc1 | inactive: 95%
17 | CCOC(=O)N1CCc2c(sc3c2c(=O)n(Cc2ccccc2)c(=O)n3Cc2cccc(Cl)c2)C1 | inactive: 83%
18 | Cc1ccc(-n2nc(C(=O)N3CCCCC3C)c(=O)n(C)c2=O)cc1 (configuration not stated) | inactive: 95%
19 | CC1CCCCN1S(=O)(=O)c1ccc(NC(=O)c2cnccn2)cc1 (configuration not stated) | inactive: 80%
20 | Cc1nn(CCCC(=O)NCc2ccccc2)c(=O)c2c1sc1ccccc12 | inactive: 105%
21 | O=C(CC1N=C2c3ccccc3N=C(SCC(=O)Nc3ccccc3F)N2C1=O)NCc1ccc2c(c1)OCO2 (configuration not stated) | inactive: 73%
22 | Cc1ccc2occ(CC(=O)Nc3c(C(=O)Nc4ccc(Cl)cc4)oc4ccccc34)c2c1 | inactive: 67%

Row | SMILES | survival
23 | CC(C)COc1ccc(C(=O)N2CCC(c3nc4ccccc4s3)CC2)cc1 | active: 17%
24 | Cc1cccc(C)c1NC(=O)CN(C)S(=O)(=O)c1ccc2[nH]c3c(c2c1)CCCC3 | inactive: 119%
25 | O=C1CN=C(Nc2ccc(F)cc2)N1C1CCCC1 | inactive: 98%
26 | CN(C(=O)CSc1nc2ccccc2[nH]1)c1ccc(F)cc1 | inactive: 98%
27 | Cc1ccc(CSc2nncn3c2cc2sccc23)cc1 | inactive: 76%
28 | CC(C)CCn1c(=O)c2sccc2n2c(CCCC(=O)Nc3ccc(C(C)C)cc3)nnc12 | inactive: 86%
29 | CCOC(=O)CC(NS(=O)(=O)c1cc(-c2cc(C)no2)ccc1C)c1ccc(C)cc1 (configuration not stated) | inactive: 74%
30 | COc1ccc(N2CCN(c3nc4ccccc4n4c(C)nnc34)CC2)cc1 | inactive: 73%
31 | CCOc1ccc(C(=O)Nc2ccc3nc4c(c(Nc5ccccc5OC)c3c2)CCCC4)cc1 | inactive: 74%
32 | CCOc1ccc2nc(NC(=O)c3nc(SCc4ccc(C)cc4)ncc3Cl)sc2c1 | inactive: 54%
33 | COC(=O)C1=CNC=C(C(=O)OC)C1c1ccc(C(F)(F)F)cc1 | inactive: 91%
34 | COc1ccc(CNC(=O)c2ccc3c(c2)CCN3S(=O)(=O)c2ccccc2)cc1 | active: 36%
35 | CC1CCCN(S(=O)(=O)c2cc(C(=O)NCCc3ccccc3)n(C)c2)C1 (configuration not stated) | inactive: 73%
36 | O=C(NCc1cccnc1)C1CCCCC1 | inactive: 70%
37 | Cc1ccccc1CNC(=O)c1ccc(Cn2c(SCc3ccccc3)nc3cccnc32)cc1 | active: 0%
38 | Oc1ccc(Br)cc1C=Nc1ccc2[nH]ncc2c1 | inactive: 80%
39 | COc1ccc(OC)c(S(=O)(=O)NCc2ccc3c(c2)CCN3C(=O)c2cccc(C)c2)c1 | inactive: 67%
40 | Cc1ccc2c(c1)cc(CN(Cc1ccc3c(c1)OCO3)S(=O)(=O)c1ccccc1)c1nnnn12 | inactive: 90%
41 | Cc1cccc(N2C(=O)N(Cc3ccc(C(C)(C)C)cc3)c3ccccc3S2(=O)=O)c1 | inactive: 61%
42 | COc1ccccc1NC(=O)C1=C(C)Nc2nc(SCC(=O)c3ccc(C)cc3)nn2C1c1ccc(F)cc1 (configuration not stated) | inactive: 79%
43 | O=C(NCc1ccc(Cl)cc1)c1cnc(N2CCOCC2)c2ccccc12 | inactive: 94%
44 | CCCOCc1cc(CN2CCN(c3ccccc3OC)CC2)c(O)c2ncccc12 | inactive: 73%

Row | SMILES | survival
45 | O=C(Cn1c(=O)sc2ccccc21)OCc1ccccc1 | inactive: 83%
46 | CCOC(=O)c1c(NC(=O)C(C)Sc2cn(CCNC(=O)c3ccc(OC)cc3)c3ccccc23)sc2c1CCC2 (configuration not stated) | inactive: 76%
47 | COc1ccc(Cn2c(SCc3ccc(C(=O)NCc4cccs4)cc3)nc3ccncc32)cc1 | inactive: 66%
48 | CCN(C(=O)c1cc(S(=O)(=O)N2CCCC2)cn1C)c1ccc(OC)cc1 | inactive: 84%
49 | COc1ccc(NC(=O)c2nnn(CC(=O)Nc3cc(C)cc(C)c3)c2N)c(OC)c1 | inactive: 111%
50 | CCCCC(=O)Nc1ccc(C(=O)OCc2cc(=O)n3ccsc3n2)cc1 | inactive: 75%
51 | O=S(=O)(c1ccccc1)c1nc(-c2ccco2)oc1SCc1ccc(F)cc1 | inactive: 76%
52 | Cc1ccc(NC(=O)Cn2c(=O)cc(-c3ccccc3)c3c(C)nn(C)c32)c(Cl)c1 | inactive: 78%
53 | O=C(CSc1nnc(-c2ccc(Cl)cc2)c(-c2ccc(Cl)cc2)n1)NC1CCCC1 | inactive: 70%
54 | O=C(CCCn1c(=O)[nH]c2ccsc2c1=O)N1CCN(c2ccc(Cl)cc2)CC1 | inactive: 82%
55 | Cc1ccc(C)c(NC(=O)Cn2c(=O)n(CC(=O)NCCc3ccccc3)c(=O)c3ccccc32)c1 | inactive: 94%
56 | Cc1ccc(-c2nc(CNC(=O)NC3CCCCC3)c(C)o2)cc1 | inactive: 91%
57 | COc1ccc(CNc2nc(-c3ccco3)nn2C(=O)c2ccccc2C)cc1 | inactive: 51%
58 | Cc1ccc(Cl)cc1NC(=O)c1ccc2nc(CCc3ccccc3)oc2c1 | inactive: 69%
59 | CCc1ccc(C(=O)Nc2cccc(-c3nc4cc(C(C)C)ccc4o3)c2)cc1 | active: 41%
60 | CC(=O)c1cccc(NC(=O)Nc2cc3c(cc2N2CCCC2)n(C)c(=O)n3C)c1 | inactive: 100%
61 | CCn1cc(C(=O)NCc2ccccc2Cl)c(=O)c2cc(S(=O)(=O)N3CCCCCC3)ccc21 | inactive: 72%
62 | CCOc1ccc(Nc2oc(-c3ccc(COc4ccc(C)cc4)o3)nc2C#N)cc1 | inactive: 63%
63 | O=C(c1ccccc1)c1ccc2nc(N3CCN(c4ccc(F)cc4)CC3)c3nncn3c2c1 | inactive: 83%
64 | Cc1ccc(NC(=O)C2CCCN(c3ncnc4onc(C)c34)C2)cc1Cl (configuration not stated) | inactive: 112%
65 | Cc1ccc(S(=O)(=O)c2nnn3c2nc(N2CCN(c4cccc(C)c4C)CC2)c2ccccc23)cc1C | inactive: 55%
66 | COc1ccc(CCNC(=O)c2cc3n(n2)C(C(F)(F)F)CC(C2CC2)N3)cc1OC (configuration not stated) | inactive: 99%

Row | SMILES | survival
67 | COc1ccccc1-c1cc2nc(C)c(CCC(=O)NC3CCCCC3)c(C)n2n1 | inactive: 87%
68 | COc1cc(OC)c(NC(=O)C(C)n2nc(-c3ccc(C)cc3)c3c(c2=O)CCCC3)cc1Cl (configuration not stated) | active: 39%
69 | O=C(Nc1cc(F)ccc1F)c1cnn2c(C(F)F)cc(-c3ccccc3)nc12 | inactive: 130%
70 | COC(=O)c1ccc(NC(=O)CSc2nc3cc4ccccc4cc3[nH]2)cc1 | inactive: 65%
71 | CCOCCCNC(=O)Cn1nc(CC)n2c(cc3c(OC)cccc32)c1=O | inactive: 88%
72 | CCOC(=O)CC(NC(=O)CCc1c(C)nc2cc(-c3ccccc3)nn2c1C)c1ccc(C)cc1 (configuration not stated) | inactive: 109%
73 | CCc1ccc(NC(=O)CCNC(=O)Cn2cnc3ccccc3c2=O)cc1 | inactive: 84%
74 | Cc1ccc(CNC(=O)c2cccc(Nc3nc4ccccc4n4nnnc34)c2)cc1 | inactive: 45%
75 | Cc1ccc(NC(=O)Cn2ncn3c(cc4ccccc43)c2=O)cc1C | inactive: 73%
76 | COC(=O)c1ccccc1NC(=O)Cn1c(=O)n(CCCCC(=O)NCc2ccc3c(c2)OCO3)c(=O)c2ccccc21 | inactive: 67%
77 | COc1cc(OC)c(NC(=O)c2c(C)oc3ncnc(N4CCCCC4)c23)cc1Cl | inactive: 96%
78 | Cc1ccc(N2CCN(c3nc4ccccc4c4nnc(C)n34)CC2)c(C)c1 | inactive: 101%
79 | CCNc1sc(S(C)(=O)=O)nc1S(=O)(=O)c1ccc(C)cc1 | inactive: 125%
80 | CCCCc1nn2c(=O)cc(COC(=O)c3cccs3)nc2s1 | inactive: 99%
81 | COc1ccc(C)c(N2C(=O)CC(N3CCN(c4ccc(F)cc4)CC3)C2=O)c1 (configuration not stated) | inactive: 123%
82 | Cc1cc(S(=O)(=O)NC23CC4CC(CC(C4)C2)C3)ccc1-n1cnnn1 | inactive: 95%
83 | Cn1c(=O)n(C)c2cc(N3CCCC3)c(NC(=O)Nc3ccccc3)cc21 | inactive: 56%
84 | Clc1cccc(-n2ncc3c(N4CCCCCC4)ncnc32)c1 | inactive: 92%
85 | Cc1cc(C(=O)N2CCN(c3cc(Cl)ccc3C)CC2)c2c(C)nn(-c3ccccc3)c2n1 | inactive: 124%
86 | COc1ccc(C(=O)Nc2nnc(SCc3cc(=O)n4cc(Cl)ccc4n3)s2)cc1 | inactive: 79%
87 | C=CCN1C(=O)C(CC(=O)NCC)SC1=Nc1ccc(S(N)(=O)=O)cc1 (configuration not stated) | inactive: 85%
